Test results published in PubChem BioAssay AID1457 (National Center for Advancing Translational Sciences (NCATS), 2008).
In all, about 210,000 compounds went through this assay and about 730 (0.35%) were called active. Inconclusive results, whose numbers are uncertain, are shown with a selection of clear calls. The call rests on the fitted dose curve; in most records, active means well fitted inhibition curve with a large enough effect; inconclusive means small, poorly fitted or top-dose-only effect; inactive means no such curve, though single readings can be large or run the other way. Potencies beside an inconclusive call are fits to weak or partial responses and may not hold up.

Test: qHTS Assay for Identifying the Cell-Membrane Permeable IMPase Inhibitors: Potentiation with Lithium; further: nearly all actives have a fitted effect of over 50% in size
Conditions: CHO-M1 cells, IP1 TR-FRET (IP-One), carbachol + lithium; series mostly up to 59.4 µM
Method in brief: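 CHO-M1, 2000 cells/well, 16–30 h culture; cpd + low Li+, 30 min 37C; lysis with d2-IP1/Eu-anti-IP1 Ab, 10 min RT; TR-FRET 665/620 ratio and 620 channel; AC50 via Hill.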
Potency means the concentration at half of the fitted maximal effect.

Row | Structure (SMILES) | Potency
1 | CCC(C)NC(=O)c1ccc2c(c1)N(Cc1ccccc1)C(=O)CS2 (stereo not drawn) | inconclusive: 1.41 µM [inhibitor, full curve, poor fit]
2 | O=C(Nc1ccccc1)c1cc2c(=O)c3ccccc3oc2nc1C(F)(F)F | inconclusive: 28.2 µM [inhibitor, single point]
3 | CCc1cc(=O)oc2cc(OCc3nn[nH]n3)ccc12 | inconclusive: 31.6 µM [inhibitor, single point]
4 | O=C1c2ccccc2NC(c2ccncc2)N1c1ccccn1 (stereo not drawn) | inconclusive: 7.94 µM [inhibitor, partial curve]
5 | CCCCCCCCCn1cc(C(C)=O)c(=O)[nH]c1=O | inconclusive: 11.2 µM [inhibitor, partial curve]
6 | CCC(Sc1nnc(C)s1)C(=O)Nc1nccs1 (stereo not drawn) | inconclusive: 28.2 µM [inhibitor, single point]
7 | COCCOC(=O)c1c(NC(=O)CN(C)c2ccccc2)sc(C(N)=O)c1C | inconclusive: 28.2 µM [inhibitor, single point]
8 | Cn1c(=O)c2[nH]c(-c3ccc(S(=O)(=O)O)cc3)nc2n(C)c1=O | inconclusive: 10 µM [inhibitor, single point]
9 | CCCCNC(=O)COC(=O)c1c2c(nc3ccccc13)/C(=C/c1cccs1)CC2 | inconclusive: 17.8 µM [inhibitor, single point]
10 | COc1ccc(NC(=O)c2sccc2SCc2cccc(C(F)(F)F)c2)cc1 | inactive
11 | CCOC(=O)c1sc2ccccc2c1OC(=O)c1ccccc1 | inactive
12 | Nc1ccc(N(S(=O)(=O)c2ccccc2)S(=O)(=O)c2ccccc2)c(Cl)c1 | inactive
13 | CCOC(=O)c1cc2sccc2n1CC(=O)C(C)(C)C | inconclusive: 11.2 µM [inhibitor, single point]
14 | O=C(Nc1nnc(-c2ccc(F)cc2)s1)C1CCN(S(=O)(=O)c2ccc(Cl)cc2)CC1 | active: 7.94 µM
15 | COc1ccc(-c2ccc(C#N)c(OC)n2)cc1 | inconclusive: 5.01 µM [inhibitor, single point]
16 | CC(=O)C1=C(C)NC(SCC(=O)c2ccc(Cl)cc2)=C(C#N)C1CC(C)C (stereo not drawn) | inconclusive: 10 µM [inhibitor, single point]
17 | Cc1ccc(-c2cc3ncc(C#N)c(N)n3n2)cc1 | inconclusive: 22.4 µM [inhibitor, single point]
18 | Cc1ccc(Sc2nnc(Cc3ccccc3)c3ccccc23)cc1 | inconclusive: 28.2 µM [inhibitor, single point]
19 | O=C(NCC1CCCO1)c1ccc(S(=O)(=O)N2CCC(c3nc4ccc(Cl)cc4[nH]3)CC2)cc1 (stereo not drawn) | inactive

Row | Structure (SMILES) | Potency
20 | COc1cccc(-c2nccc(NCc3ccccc3OC)n2)c1 | inactive
21 | CCOC(=O)c1ccc2c(c1)sc(=NC(=O)c1ccco1)n2CCOC | inconclusive: 14.1 µM [inhibitor, single point]
22 | Cc1cccc(CN2CCN(CC(=O)O)C2=O)c1 | active: 11.2 µM
23 | O=C1CC(=O)N(c2ccccc2)N1c1ccccc1 | inactive
24 | CC(=O)c1sc(NC(=O)COc2ccc(Br)cc2)nc1C | inconclusive: 22.4 µM [inhibitor, single point]
25 | O=C(CSc1ccc2ccccc2n1)Nc1nsc(-c2ccc(Cl)cc2)n1 | inconclusive: 11.2 µM [inhibitor, single point]
26 | Cc1c(C(=O)c2ccc(N(C)C)cc2)c2ccccn2c1CCC#N | inactive
27 | CC#CCOC(=O)c1c(C)nc2sc3c(c2c1N)CCC(O)C3 (stereo not drawn) | inconclusive: 28.2 µM [inhibitor, single point]
28 | CCN(CC)C(=O)CSC1=C(C#N)C(c2cccs2)C=C(C)N1 (stereo not drawn) | inconclusive: 10 µM [inhibitor, single point]
29 | COc1ccc(-c2nc3c(c(=O)[nH]c(=O)n3Cc3ccccc3)n2C)cc1 | inconclusive: 15.8 µM [inhibitor, single point]
30 | CCOC(=O)c1c(NC(=O)c2ccco2)sc2c1CCCC2 | inactive
31 | Cc1ccc(NS(=O)(=O)c2ccc(Cl)c(NC(=S)NC(=O)C3CCCCC3)c2)cc1Cl | inactive
32 | COc1cccc(-c2ccc(C#N)c(SCC(=O)NCCc3ccccc3)n2)c1 | inconclusive: 28.2 µM [inhibitor, single point]
33 | O=C(CSc1nnnn1-c1ccccc1F)Nc1nc2ccccc2s1 | inconclusive: 14.1 µM [inhibitor, single point]
34 | O=C(COC(=O)c1cc2c(s1)CCCC2)Nc1ccc(Cl)cn1 | inconclusive: 12.6 µM [inhibitor, single point]
35 | CCOc1ccc(-n2c(C)nc3cc(C(=O)NCc4ccco4)ccc32)cc1 | inactive
36 | Nc1cc(=O)[nH]c(SCc2nnc(-c3ccccc3)o2)n1 | inactive
37 | CN(C)c1ccc(NC(=O)c2cccc(N3C(=O)CCC3=O)c2)cc1 | inactive
38 | N=c1ccn(Cc2ccc(Cl)c(Cl)c2)cc1 | inactive
